Experimental data from US20230250147A1, “GLP-1R AGONISTIC PEPTIDES WITH REDUCED ACTIVITY” (SANOFI, priority 2020, published 2023).

B1: 217 (protein)
chain: YSEGTFTSDLSILCEKRAVHEFIEWLIAGGPSSGKPPPKPGCGSGGGGGSGGGGSGGGGGA[… human IgG1 Fc with changes …]GGGSGSAHPIPDSSPLLQFGGQVRQRYLYTDDACQTEAHLEIREDGTVGGAADQSPESLLQLKALKPGVIQILGVKTSRFLCQRPDGALYGSLHFDPEACSFRELLLEDGYNVYQSEAHGLPLHLPGCKSPHRDPAPRGPARFLPLPGLPPAPPEPPGILAPQPPDVGSSDPLSMVYPSQGRSPSYAS
modifications: Fusion Protein
B2: 219 (protein)
chain: GHGEGTFTSDKSKQLEEEAVRLFIEWLKAGGGGGGGGGSGGGGSGGGGSA[… human IgG1 Fc with changes …]GGGSGSAHPIPDSSPLLQFGGQVRQRYLYTDDACQTEAHLEIREDGTVGGAADQSPESLLQLKALKPGVIQILGVKTSRFLCQRPDGALYGSLHFDPEACSFRELLLEDGYNVYQSEAHGLPLHLPGCKSPHRDPAPRGPARFLPLPGLPPAPPEPPGILAPQPPDVGSSDPLSMVYPSQGRSPSYAS
modifications: Fusion Protein
B3: 220 (protein)
chain: GHGEGTFTSDKSKQLEEEAVRLFIEWLKAGGPAPAPAPAPAPAGGG[… human IgG1 Fc with changes …]GGGSGSAHPIPDSSPLLQFGGQVRQRYLYTDDACQTEAHLEIREDGTVGGAADQSPESLLQLKALKPGVIQILGVKTSRFLCQRPDGALYGSLHFDPEACSFRELLLEDGYNVYQSEAHGLPLHLPGCKSPHRDPAPRGPARFLPLPGLPPAPPEPPGILAPQPPDVGSSDPLSMVYPSQGRSPSYAS
modifications: Fusion Protein
B4: 221 (protein)
chain: GHGEGTFTSDKSKQLEEEAVRLFIEWLKAGPAPAPAEAAAKEAAAKPAPAPA[… human IgG1 Fc with changes …]GGGSGSAHPIPDSSPLLQFGGQVRQRYLYTDDACQTEAHLEIREDGTVGGAADQSPESLLQLKALKPGVIQILGVKTSRFLCQRPDGALYGSLHFDPEACSFRELLLEDGYNVYQSEAHGLPLHLPGCKSPHRDPAPRGPARFLPLPGLPPAPPEPPGILAPQPPDVGSSDPLSMVYPSQGRSPSYAS
modifications: Fusion Protein
B5: 222 (protein)
chain: GHGEGTFTSDKSKQLEEEAVRLFIEWLKAGGAEAAAKEAAAKEAAAKGGG[… human IgG1 Fc with changes …]GGGSGSAHPIPDSSPLLQFGGQVRQRYLYTDDACQTEAHLEIREDGTVGGAADQSPESLLQLKALKPGVIQILGVKTSRFLCQRPDGALYGSLHFDPEACSFRELLLEDGYNVYQSEAHGLPLHLPGCKSPHRDPAPRGPARFLPLPGLPPAPPEPPGILAPQPPDVGSSDPLSMVYPSQGRSPSYAS
modifications: Fusion Protein
B6: 94 (protein)
chain: HGEGTFTSDLSIQLEEEAVQLFIEWLLATGPVSGAPPPSGGGGGGGSGGGGSGGGGSA[… human IgG4 Fc with changes …]GGGSGSAHPIPDSSPLLQFGGQVRQRYLYTDDACQTEAHLEIREDGTVGGAADQSPESLLQLKALKPGVIQILGVKTSRFLCQRPDGALYGSLHFDPEACSFRELLLEDGYNVYQSEAHGLPLHLPGCKSPHRDPAPRGPARFLPLPGLPPAPPEPPGILAPQPPDVGSSDPLSMVGSQGRSPSYAS
modifications: Fusion Protein
B7: 97 (protein)
chain: HGEGTFTSDLSILLEEEAVRLFIEWLLATGPVSGAPPPSGGGGGGGSGGGGSGGGGSA[… human IgG4 Fc with changes …]GGGSGSAHPIPDSSPLLQFGGQVRQRYLYTDDACQTEAHLEIREDGTVGGAADQSPESLLQLKALKPGVIQILGVKTSRFLCQRPDGALYGSLHFDPEACSFRELLLEDGYNVYQSEAHGLPLHLPGCKSPHRDPAPRGPARFLPLPGLPPAPPEPPGILAPQPPDVGSSDPLSMVGSQGRSPSYAS
modifications: Fusion Protein
B8: 100 (protein)
chain: HGEGTFTSDLSKQLEEEAVRLFIEWLLATGPSSGEPPPEGGGGGGGSGGGGSGGGGSA[… human IgG4 Fc with changes …]GGGSGSAHPIPDSSPLLQFGGQVRQRYLYTDDACQTEAHLEIREDGTVGGAADQSPESLLQLKALKPGVIQILGVKTSRFLCQRPDGALYGSLHFDPEACSFRELLLEDGYNVYQSEAHGLPLHLPGCKSPHRDPAPRGPARFLPLPGLPPAPPEPPGILAPQPPDVGSSDPLSMVGSQGRSPSYAS
modifications: Fusion Protein
B9: 101 (protein)
chain: HAQGTFTSDLSKQLESRRAQEFIEWLLATGPESGAPPPSGGGGGGGSGGGGSGGGGSA[… human IgG4 Fc with changes …]GGGSGSAHPIPDSSPLLQFGGQVRQRYLYTDDACQTEAHLEIREDGTVGGAADQSPESLLQLKALKPGVIQILGVKTSRFLCQRPDGALYGSLHFDPEACSFRELLLEDGYNVYQSEAHGLPLHLPGCKSPHRDPAPRGPARFLPLPGLPPAPPEPPGILAPQPPDVGSSDPLSMVGSQGRSPSYAS
modifications: Fusion Protein
B10: 102 (protein)
chain: HSQGTFTSDLSKQLESRRARRFIEWLLATGPESGAPPPSGGGGGGGSGGGGSGGGGSA[… human IgG4 Fc with changes …]GGGSGSAHPIPDSSPLLQFGGQVRQRYLYTDDACQTEAHLEIREDGTVGGAADQSPESLLQLKALKPGVIQILGVKTSRFLCQRPDGALYGSLHFDPEACSFRELLLEDGYNVYQSEAHGLPLHLPGCKSPHRDPAPRGPARFLPLPGLPPAPPEPPGILAPQPPDVGSSDPLSMVGSQGRSPSYAS
modifications: Fusion Protein
B11: 105 (protein)
chain: HGEGTFTSDKSQLLEERLAHLFIEWLIKGGHSSIKPPPKGGGGGGGSGGGGSGGGGSA[… human IgG4 Fc with changes …]GGGSGSAHPIPDSSPLLQFGGQVRQRYLYTDDACQTEAHLEIREDGTVGGAADQSPESLLQLKALKPGVIQILGVKTSRFLCQRPDGALYGSLHFDPEACSFRELLLEDGYNVYQSEAHGLPLHLPGCKSPHRDPAPRGPARFLPLPGLPPAPPEPPGILAPQPPDVGSSDPLSMVGSQGRSPSYAS
modifications: Fusion Protein

Molecular target: T1, Human GLP-1R (Homo sapiens, UniProt P43220)
T1 construct: expressed in transfected cells; host or cells: HEK-293
T1 sequence (P43220 24-463): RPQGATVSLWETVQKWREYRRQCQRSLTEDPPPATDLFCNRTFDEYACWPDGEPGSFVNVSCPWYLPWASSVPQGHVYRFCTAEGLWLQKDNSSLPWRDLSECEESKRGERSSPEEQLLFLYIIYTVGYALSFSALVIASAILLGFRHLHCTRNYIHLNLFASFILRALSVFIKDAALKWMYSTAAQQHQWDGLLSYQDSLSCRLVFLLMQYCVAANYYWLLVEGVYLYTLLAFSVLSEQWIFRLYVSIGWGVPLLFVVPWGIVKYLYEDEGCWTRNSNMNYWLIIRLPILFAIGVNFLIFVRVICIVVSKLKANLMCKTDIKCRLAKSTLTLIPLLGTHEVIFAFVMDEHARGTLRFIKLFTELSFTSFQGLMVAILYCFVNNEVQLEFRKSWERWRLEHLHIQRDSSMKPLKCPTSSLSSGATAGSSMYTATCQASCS
Assay: HTRF cAMP assay in HEK-293 cells, human GLP-1R
Format: cell-based

Question: How did the EC50 turn out when B1 was run?
Answer: The EC50 was 0.00762 nM.

Question: With B2 as the molecule, how does the EC50 read?
Answer: The EC50 was 0.222 nM.

Question: Which EC50 does the source give for B3 here?
Answer: Its EC50 is 0.0955 nM.

Question: For B4, which EC50 is on record?
Answer: Its EC50 is 0.202 nM.

Question: With B5 as the molecule, how does the EC50 read?
Answer: Its EC50 is 0.327 nM.

Question: Which EC50 does the source give for B6 here?
Answer: The EC50 was 0.0665 nM.

Question: For B7, which EC50 is on record?
Answer: Its EC50 is 0.0404 nM.

Question: Which EC50 does the source give for B8 here?
Answer: The EC50 was 0.015 nM.

Question: With B9 as the molecule, how does the EC50 read?
Answer: The EC50 was 0.0835 nM.

Question: B10 was tested. Which EC50 did it give?
Answer: The EC50 was 0.17 nM.

Question: With B11 as the molecule, how does the EC50 read?
Answer: Its EC50 is 0.00812 nM.

Molecular target: T2, Mouse GLP-1R (Mus musculus, UniProt O35659)
T2 construct: expressed in transfected cells; host or cells: HEK-293
T2 sequence (O35659 22-463): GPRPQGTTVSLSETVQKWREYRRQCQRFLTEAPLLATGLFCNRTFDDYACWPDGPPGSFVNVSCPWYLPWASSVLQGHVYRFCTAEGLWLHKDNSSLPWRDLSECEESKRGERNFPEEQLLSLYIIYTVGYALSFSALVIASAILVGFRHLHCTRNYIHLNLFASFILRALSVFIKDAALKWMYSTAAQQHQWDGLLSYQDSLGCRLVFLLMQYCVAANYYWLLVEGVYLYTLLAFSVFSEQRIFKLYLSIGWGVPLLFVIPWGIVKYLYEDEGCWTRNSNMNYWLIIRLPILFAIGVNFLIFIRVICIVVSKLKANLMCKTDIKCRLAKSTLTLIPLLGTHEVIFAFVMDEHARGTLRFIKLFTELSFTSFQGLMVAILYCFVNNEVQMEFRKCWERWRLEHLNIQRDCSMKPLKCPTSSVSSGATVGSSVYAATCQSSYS
Assay: HTRF cAMP assay in HEK-293 cells, mouse GLP-1R
Format: cell-based
Description: Recombinant HEK-293 cells were grown in T175 culture flasks placed at 37° C. to near confluence in medium (DMEM with 10% FBS) and collected in 2 mL vials in cell culture medium containing 10% DMSO in concentrations of 1-5×10^7 cells/mL. Each vial contained 1.8 mL cell suspension. The vials were slowly frozen to −80° C. in an isopropanol chamber, and then transferred to liquid nitrogen for long term storage.
Prior to their use, frozen cells were thawed quickly at 37° C., washed with 20 mL cell buffer (1×HBSS; 20 mM HEPES, 0.1% BSA) and centrifuged for 5 minutes at 900 rpm. Cells were resuspended in assay buffer (cell buffer plus 2 mM IBMX) and adjusted to a cell density of 1×10^6 cells/mL. For measurement, 5 μL cell suspension (final 5×10^3 cells/well) and 5 μL of test compound were added to a well of a 384-well plate, followed by incubation for 30 minutes at room temperature. […] The cAMP content of cells was determined using a kit from Cisbio Corp. (cat. no. 62AM4PEC) based on Homogenous Time Resolved Fluorescence (HTRF).

Question: How did the EC50 turn out when B1 was run?
Answer: The EC50 was 0.00539 nM.

Question: Which EC50 does the source give for B2 here?
Answer: Its EC50 is 0.422 nM.

Question: For B3, which EC50 is on record?
Answer: Its EC50 is 0.11 nM.

Question: How did the EC50 turn out when B4 was run?
Answer: Its EC50 is 0.162 nM.

Question: For B5, which EC50 is on record?
Answer: Its EC50 is 0.201 nM.
